Consider 95 compounds from PubChem BioAssay AID1159614 (National Center for Advancing Translational Sciences (NCATS), 2016).

Screen size: about 45,000 compounds; about 65 (0.1%) were called active. The call rests on the fitted dose curve; in most records, active means well fitted activation curve with a large enough effect; inconclusive means small, poorly fitted or top-dose-only effect; inactive means no such curve, though single readings can be large or run the other way. Some of the results follow.

For this assay, the target named is Galactocerebrosidase (Homo sapiens) (UniProt P54803). The assay is described as follows: A Novel Cell-Based Assay to Identify Small Molecules for B -Galactocerebrosidase. Further: 0% is about no effect; nearly all actives have a fitted effect of over 65% in size. The following applies: 145M-Twi-hGALC-G270D cells (Twitcher mouse brain line with human GALC G270D), HMU-beta-Gal fluorescence, 48 h; series mostly up to 57.5 µM; activation: at the top concentration. In a few lines: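 Fluorogenic HMU-b-Gal hydrolysis (0.1 mM final, pH 5.2 citrate-phosphate with 1 mg/mL sodium taurocholate; carbonate stop buffer) measures mutant GALC activity after compound treatment of live 145M-Twi Twitcher brain cells stably carrying human GALC-G270D, with wild-type GALC line alongside; activation sought.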
UniProt P54803, sequence (P54803 whole entry, looked up): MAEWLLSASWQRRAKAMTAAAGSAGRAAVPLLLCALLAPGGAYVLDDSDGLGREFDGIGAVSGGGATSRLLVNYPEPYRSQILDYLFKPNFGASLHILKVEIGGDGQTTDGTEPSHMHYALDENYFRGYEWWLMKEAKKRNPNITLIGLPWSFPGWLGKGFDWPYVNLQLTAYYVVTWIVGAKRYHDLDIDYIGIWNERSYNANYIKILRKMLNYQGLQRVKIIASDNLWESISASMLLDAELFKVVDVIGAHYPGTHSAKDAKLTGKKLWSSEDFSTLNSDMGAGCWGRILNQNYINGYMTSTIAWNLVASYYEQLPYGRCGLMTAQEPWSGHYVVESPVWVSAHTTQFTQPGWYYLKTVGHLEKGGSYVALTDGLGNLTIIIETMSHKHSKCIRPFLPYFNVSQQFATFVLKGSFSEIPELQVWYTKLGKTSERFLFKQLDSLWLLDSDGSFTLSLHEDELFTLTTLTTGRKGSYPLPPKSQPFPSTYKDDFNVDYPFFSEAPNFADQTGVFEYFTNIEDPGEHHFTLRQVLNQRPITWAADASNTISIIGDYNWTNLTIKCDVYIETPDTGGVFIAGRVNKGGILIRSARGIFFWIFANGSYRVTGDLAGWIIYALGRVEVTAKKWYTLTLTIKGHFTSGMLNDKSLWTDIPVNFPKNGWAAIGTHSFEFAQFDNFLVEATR
As to `COc1ccc(-n2c(=O)c3c(C)c(C)sc3n(Cc3ccc(F)cc3)c2=O)c(OC)c1`, the “activation” value was inactive: -21.3%. Regarding `Cc1ccc(S(=O)(=O)N2CCCc3cc(NC(=O)c4ccc(C(F)(F)F)cc4)ccc32)cc1`, the “activation” value is inactive: -13.6%. To `Cc1ccc(N2C(=O)[C@@H]3CSC(c4ccc(C(F)(F)F)cc4)N3C2=O)cc1` (stereo not given in full) belongs inactive: -7.3%; to `CCOC(=O)C1=C(CNCc2ccccc2)NC(=O)NC1c1ccc(C)cc1` (stereo not given), inactive: -8.23%. To `COc1cccc(-c2nc(SC(C(C)=O)C(=O)N(C)C)c3c(=O)n(C)c(=O)n(C)c3n2)c1` (stereo not given) belongs inactive: -17.7%.

Turning to `CN(C)CCn1nnnc1SCC1=C(C(=O)O)N2C(=O)[C@@H](NC(=O)Cc3csc(N)n3)[C@H]2SC1`, the “activation” value is inactive: -12.5%. For the compound `Cc1cc(=O)n(C(C)C(=O)NCc2ccccc2Cl)c2c1c(C)nn2-c1ccccc1` (stereo not given), the “activation” value was inactive: -10.9%. In the case of `O=C(Nc1ccc(F)cc1)c1cccc(N2CCCS2(=O)=O)c1`, the “activation” value was inactive: -34.2%. As for `Cc1ccc(NC(=O)c2ccc3c(=O)n4nc(Nc5ccccc5C)sc4nc3c2)cc1C`, the “activation” value was inactive: -24.9%. `CCc1ccc(C2N3CC4(C)CN2CC(c2ccccc2)(C3)C4=O)cc1` (stereo not given): the “activation” value was inactive: -10.4%. Turning to `Cc1c2cnn(CC(=O)N3CCCCC3)c(=O)c2c(C)n1Cc1ccc(Cl)cc1`, the “activation” value was inactive: -6.34%. Under `CCn1cc(C(=O)NCc2ccccc2)c(=O)c2cc(S(=O)(=O)N3CCOCC3)ccc21` stands inactive: 4.23%; under `COC(=O)C1=C(C)NC(=O)NC1c1cn(-c2ccccc2)nc1-c1ccc(OC)c(Cl)c1` (stereo not given), inactive: -4.15%. To `Cc1ccc(C(C)C)c(OCC(=O)Nc2c(C(=O)c3ccc(F)cc3)oc3ccccc23)c1` belongs inactive: -1.4%; to `Cc1cc(O)c(C(c2ccccc2Cl)N2CCCCC2)c(=O)n1Cc1ccco1` (stereo not given), inactive: -20.7%; to `COc1cc(OC)c(C2C=C(c3ccc(C)cc3)Nc3c(C(=O)Nc4ccccc4)cnn32)cc1OC` (stereo not given), inactive: -11.5%. To `Cc1c(Cl)cccc1NC(=O)C(=O)NCCc1csc(-c2cccc(F)c2)n1` belongs inactive: -2.61%; to `CC(C)CCCC(C)N` (stereo not given), inactive: 9.55%. As for `Cc1ccc(/C=C/c2onc(C)c2S(=O)(=O)N2CCC(C(=O)NCc3ccc(Cl)cc3)CC2)cc1`, the “activation” value was inactive: -7.43%. Under `CC(NC(=O)c1ccc(N2Cc3ccccc3Oc3ncccc32)s1)c1ccccc1` (stereo not given) stands inactive: -15.5%. To `CCOC(=O)C(C)NC(=O)c1cc2c(=O)[nH]c3ccc(C)cc3c2s1` (stereo not given) belongs inactive: -7.76%; to `O=C(NCCc1ccc(Cl)cc1)c1ccc2c(c1)N(Cc1ccc(F)cc1Cl)C(=O)CS2`, inactive: 8.69%; to `CC(NC(=O)Cc1ccc(NC(=O)N2CCCCc3ccccc32)cc1)c1ccccc1` (stereo not given), inactive: 0.552%. For the compound `COc1ccc(-c2nc(CSc3nc4ncccc4[nH]3)c(C)o2)cc1OC`, the “activation” value is inactive: 6.89%.

`COc1ccc(NC(=O)c2ccc(-c3cccc(Cl)c3C)o2)cc1`: the “activation” value was inactive: -17.5%. Under `COc1ccc(-c2[nH]c(-c3ccccc3)nc2SCC(=O)Nc2ccc3c(c2)OCO3)cc1` stands inactive: -17.8%. For `CCn1c(CN2CCCCC2)nc2cc(NC(=O)COc3ccc([N+](=O)[O-])cc3)ccc21`, the “activation” value was inactive: -14.2%. For the compound `Cc1oc(-c2ccc(Cl)cc2)nc1CN1CCCC(C(=O)NCc2ccc(Cl)cc2)C1` (stereo not given), the “activation” value was inactive: -36.9%.

On to `CCCOc1ccccc1C(=O)Nc1nc2c(s1)CCCC2`, for which the “activation” value was inactive: -11%.

In the case of `CN(Cc1ccccc1)C(=O)c1ccc2c(c1)N(Cc1ccc(Cl)cc1)C(=O)c1ccccc1S2=O` (stereo not given), the “activation” value was inactive: -13.4%. Under `CCOC(=O)c1cnc2c(C)cc(C)cc2c1Nc1ccc(N2CCOCC2)cc1` stands inactive: -21.5%; under `COc1ccc(C(=O)Nc2ccc3c(c2)N(C)C(=O)c2ccccc2S3)cc1OC`, inactive: -21.2%; under `C1=CC2C3C=CC(C3)C2C1` (stereo not given), inactive: -13.7% [at 114 µM].

On to `CCOC(=O)N1CCN(C(=O)c2cnn(-c3cccc(C)c3)c2-n2cccc2)CC1`, for which the “activation” value is inactive: -13%.

`Cc1nnc(N2CCC(C(=O)NCc3cccc(Cl)c3)CC2)c2nn(-c3ccccc3)c(C)c12`: the “activation” value is inactive: -12%. For the compound `CCc1ccccc1N1CC(c2nc3ccccc3n2CCC2CCCCC2)CC1=O` (stereo not given), the “activation” value was inactive: -14.5%. For the compound `COc1cccc(NS(=O)(=O)c2ccc3[nH]cc(C(=O)N(C)Cc4ccco4)c(=O)c3c2)c1`, the “activation” value was inactive: 2.82%. `CC(C)c1ccc(NC(=O)CSC2=Nc3ccccc3C3=NC(CC(=O)NCc4ccco4)C(=O)N23)cc1` (stereo not given): the “activation” value is inactive: -19%.

With `COc1ccc(NC(=O)c2ccc3c(=O)n4nc(Nc5ccccc5C)sc4nc3c2)cc1`, the “activation” value was inactive: -3.49%.

For `O=c1c2ccccc2n2c(-c3cccc(F)c3)nnc2n1Cc1ccccc1`, the “activation” value was inactive: -10.2%. Under `Cn1c(=O)c2c(c3ccccc31)OC(=O)CC2c1ccccc1` (stereo not given) stands inactive: 2.49%; under `Cc1ccc(N(C)C(=O)c2noc3c2CCCCC3)cc1C`, inactive: -2.46%. Turning to `Cc1ccc(CC(=O)NCc2nc(-c3cccc(C)c3)no2)cc1`, the “activation” value was inactive: -13.4%. To `Cc1cccc(N2CCN(C(=O)c3c4c(nc5ccccc35)C(=O)N(C3CCCCC3)C4)CC2)c1C` belongs inactive: -14.8%; to `CN(C)c1ccc(-c2nc3ccccn3c2Nc2ccc3c(c2)OCCO3)cc1`, inactive: -15%. To `COc1ccc(OC)c(NC(=O)c2cc3c(=O)n4cccc(C)c4nc3n2C)c1` belongs inactive: -3.28%. `COc1cccc(NC(=O)CSc2nnc(NC(=O)NC3CCCCC3)s2)c1`: the “activation” value was inactive: -2.43%. To `COc1cc(OC)c(NC(=O)C(C)n2nc(-c3ccc(C)c(C)c3)ccc2=O)cc1Cl` (stereo not given) belongs inactive: -6.67%.

Take `CSc1ncc(C(=O)NCc2cccc(Br)c2)c(-c2ccccc2)n1`: the “activation” value is inactive: 12.3%. Under `COCCN1C(=O)c2oc3ccc(C)cc3c(=O)c2C1c1ccc(C(=O)OC)cc1` (stereo not given) stands inactive: 5.78%; under `Cc1ccc(NC(=O)N2CCc3c([nH]c4ccccc34)C2c2ccccc2F)c(Cl)c1` (stereo not given), inactive: -14.7%; under `CCCN1Cc2cccc(C(=O)Nc3ccc(OC)cc3OC)c2C1=O`, inactive: -9.92%.

Turning to `O=C(Cn1c(=O)c2sccc2n(CC(=O)Nc2ccc(Cl)cc2Cl)c1=O)NCCc1ccccc1`, the “activation” value is inactive: 2.67%. To `COc1cccc(C(=O)c2cn(CC(=O)Nc3cccc(Cl)c3C)c3nc(C)ccc3c2=O)c1` belongs inactive: -14.9%; to `COc1ccc(C(C(=O)NCc2ccccc2)N(C(=O)Cn2nnc3ccccc32)c2ccc(OC)cc2)cc1` (stereo not given), inactive: 7.92%; to `COc1ccc(CNS(=O)(=O)c2ccc3c(c2)C(C)(C)C(=O)N3C)cc1OC`, inactive: -9.03%. Under `O=C(NCc1ccccc1F)C(=O)NCC(c1ccco1)S(=O)(=O)c1ccccc1` (stereo not given) stands inactive: -12.8%. `Cc1ccc(C)c(NS(=O)(=O)c2ccc3c(c2)CCCN3C(=O)C2CCC2)c1`: the “activation” value was inactive: -17.3%. On to `Cc1ccc(C(C)C)c(OCC(=O)Nc2ccc(-c3nc4ncccc4o3)cc2C)c1`, for which the “activation” value was inactive: -10.1%. Under `CC(=O)N1CCc2c(sc(NC(=O)CSc3ccc(C)cc3)c2-c2nc3ccccc3s2)C1` stands inactive: -15.6%.

On to `CCOC(=O)C1=C(CS(=O)(=O)c2ccc(F)c(C)c2)NC(=O)NC1c1ccc(F)c(F)c1` (stereo not given), for which the “activation” value was inactive: 3.14%. Turning to `Cc1c(C(=O)Nc2ccccc2Cl)oc2ccc(S(=O)(=O)N3CCCCCC3)cc12`, the “activation” value is inactive: -17.2%. Take `Cc1cccc(N2CCN(C(=O)c3cccc(-n4c(C)nc5cccnc54)c3)CC2C)c1` (stereo not given): the “activation” value was inactive: -13.8%.

Take `COC(=O)c1cc2sc(Cl)cc2n1Cc1nc(-c2ccccc2F)oc1C`: the “activation” value was inactive: -5.31%.

For `O=C1CC(=O)Nc2cc(S(=O)(=O)Nc3cccc(Br)c3)ccc2N1`, the “activation” value is inactive: -13.5%.

With `Cc1ccc(CCNC(=O)c2ccc(CNS(=O)(=O)c3ccc(F)cc3)cc2)cc1`, the “activation” value is inactive: -17.4%.

For the compound `COc1ccc(NS(=O)(=O)c2cc3c4c(c2)CC(=O)N4CCC3)cc1Cl`, the “activation” value was inactive: -14.7%. Turning to `O=C(NC1(C(F)(F)F)N=C(c2ccccc2)N(C2CCCCC2)C1=O)c1ccccc1F` (stereo not given), the “activation” value was inactive: -8.92%. Under `CCn1c(CN2CCC(C)CC2)nc2cc(NC(=O)c3cccc([N+](=O)[O-])c3)ccc21` stands inactive: -17.2%; under `COc1ccc(OC)c(CCNc2ncnc3onc(C)c23)c1`, inactive: -12.1%. As for `Cc1cc(C)cc(NC(=O)Nc2c[nH]c(=O)[nH]c2=O)c1`, the “activation” value was inactive: -9.69%. Regarding `Cc1cc(C)c2c(n1)SCC(=O)N2CC(=O)Nc1c(C)cccc1C`, the “activation” value is inactive: -5.42%. In the case of `COc1ccccc1Nc1nn2c(=O)c3ccc(C(=O)N4CCC(C)CC4)cc3nc2s1`, the “activation” value is inactive: -19.6%. As for `O=C(Cn1nc(-c2ccccc2)ccc1=O)NCc1ccc(F)cc1Cl`, the “activation” value is inactive: -14.1%.

Regarding `COc1cc(NC(=O)c2c(-c3ccc(C)cc3)nnc3ccccc23)cc(OC)c1OC`, the “activation” value is inactive: -2.27%. Under `Cc1oc2c(c1C(=O)Nc1cccc(Br)c1)C1=NCCN1C=N2` stands inactive: -18.6%; under `O=C(c1nc(-c2ccc(Cl)cc2)n2c1CCCCC2)N1CCN(c2ccccc2F)CC1`, inactive: -10.2%; under `COc1ccccc1CNC(=O)CC1N=C2c3ccccc3N=C(SCC(=O)Nc3ccc(F)cc3)N2C1=O` (stereo not given), inactive: -21.9%.

On to `CCOc1cc(C(=O)Nc2ccc3oc(-c4ccc(F)cc4Cl)nc3c2)cc(OCC)c1OCC`, for which the “activation” value is inactive: -1.54%.

With `Cc1ccc(NC(=O)c2cc(C)nn2-c2ccccc2)cc1`, the “activation” value is inactive: 10.9%. `COc1ccc(N(Cc2cccs2)C(=O)c2ccccc2C)cc1`: the “activation” value is inactive: -16.1%. Under `CC(=O)c1ccc(N2C(=O)N(Cc3cccc(C(F)(F)F)c3)c3ccccc3S2(=O)=O)cc1` stands inactive: -8.96%. To `CC(=O)Nc1ccc(NC(=O)CCCc2nc(-c3ccc(C(C)(C)C)cc3)no2)cc1` belongs inactive: -6.02%. Under `CC1=C(C(=O)OC2CCCC2)C(c2ccc(F)cc2F)CC(=O)N1` (stereo not given) stands inactive: -0.78%; under `Cc1ccc(CS(=O)(=O)c2cn(CC(=O)N(C)c3ccccc3)c3ccccc23)cc1`, inactive: 2.68%. As for `COc1ccc(OCC(=O)NCC2(N3CCN(C)CC3)CCCCC2)cc1`, the “activation” value was inactive: -1.41%. To `O=C(CSc1nc(-c2ccc(F)cc2)cc(C(F)(F)F)n1)NCc1ccccc1` belongs inactive: -10.9%; to `CCCCNC(=O)CCC(=O)NNc1nc2ccccc2c2nc(-c3ccccc3)nn12`, inactive: -14.1%; to `CC(C)(C)OC(=O)N1CCC(c2c(C(=O)NC3CCN(Cc4ccccc4)CC3)cnn2-c2cccc(F)c2)CC1`, inactive: -8.01%.

On to `CCOC(=O)c1c(-c2ccccc2)oc2ccc(NS(=O)(=O)c3ccc(OC)cc3)cc12`, for which the “activation” value is inactive: -23.2%. For `O=[N+]([O-])c1cc(-c2nc(-c3ccccc3)no2)ccc1NCC1CCCO1` (stereo not given), the “activation” value is inactive: -12.8%. Under `Cc1cccc(C(=O)Nc2c3c(nn2-c2ccc(Cl)cc2)CS(=O)(=O)C3)c1` stands inactive: -11.5%; under `CCOC(=O)c1ccc2c(c1)N(Cc1cccc(OC)c1)C(=O)c1ccccc1S2(=O)=O`, inactive: -10.4%; under `CCC(CC)C(=O)Nc1ccc(OCc2cc(=O)n3ccsc3n2)cc1`, inactive: -8.81%. As for `CC(=O)Nc1ccccc1-c1nc2ccccc2n(CC(=O)c2ccc(C)c(C)c2)c1=O`, the “activation” value was inactive: 6.73%.
